Experimental data from the supplement of paper PMC3334620.
The full ranking holds about 33,000 sequences; the median of “E-score (-0.5 to 0.5)” is about -0.011, and the highest 2% start at about 0.28. The list shows a part of the results.

biological target: T1, Gcr1 (UniProt P07261); experiment: PBM E-score (8-mer binding enrichment) (E-score (-0.5 to 0.5)); higher = stronger / more preferred TF binding; most listed sequences are background and not binding sites; conditions: protein concentration: 100 nM; construct: GST-full length
T1 sequence: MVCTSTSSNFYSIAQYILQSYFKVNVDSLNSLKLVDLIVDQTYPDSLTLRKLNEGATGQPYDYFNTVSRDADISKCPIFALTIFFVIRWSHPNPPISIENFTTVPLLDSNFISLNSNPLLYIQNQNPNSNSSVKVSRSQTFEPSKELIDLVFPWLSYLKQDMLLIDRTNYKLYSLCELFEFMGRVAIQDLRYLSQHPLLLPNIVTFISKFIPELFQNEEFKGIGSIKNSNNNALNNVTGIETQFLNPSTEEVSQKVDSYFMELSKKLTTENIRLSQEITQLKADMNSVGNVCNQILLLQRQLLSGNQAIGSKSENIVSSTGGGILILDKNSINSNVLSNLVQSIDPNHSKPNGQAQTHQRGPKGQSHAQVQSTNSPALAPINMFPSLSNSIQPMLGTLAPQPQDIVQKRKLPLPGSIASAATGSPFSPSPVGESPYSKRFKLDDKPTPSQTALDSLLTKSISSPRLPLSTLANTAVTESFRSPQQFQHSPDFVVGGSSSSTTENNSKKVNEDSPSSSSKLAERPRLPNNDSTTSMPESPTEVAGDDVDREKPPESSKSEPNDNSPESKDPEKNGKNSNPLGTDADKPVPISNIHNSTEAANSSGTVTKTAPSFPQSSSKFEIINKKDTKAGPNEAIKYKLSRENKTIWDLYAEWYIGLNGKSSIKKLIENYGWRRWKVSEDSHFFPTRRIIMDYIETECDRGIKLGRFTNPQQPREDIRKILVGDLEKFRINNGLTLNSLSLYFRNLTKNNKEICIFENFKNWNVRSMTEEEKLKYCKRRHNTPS
Outline: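 Bound GST-tagged yeast transcription factors, applied at about 100-200 nM to double-stranded universal all-10-mer Agilent arrays, were detected with fluorescent anti-GST. Scans were normalised with masliner. A modified Wilcoxon-Mann-Whitney statistic, the E-score, was assigned to each ungapped eight-base word pooled with its reverse complement by the Universal PBM Analysis Suite.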

Row | Sequence | PBM E-score
1 | GACGACTC | -0.0124
2 | CCCAACGA | -0.087
3 | ACCTTAGT | 0.135
4 | GAGGGATC | -0.0613
5 | AGTCGGCG | 0.0915
6 | GAAGTTTA | 0.203
7 | ACTCGTGC | 0.0192
8 | AGCTGAAA | 0.0612
9 | AGGTACTC | 0.0501
10 | CACGATCA | -0.0966
11 | CGCATGCC | -0.00713
12 | ACCTGCGG | -0.0518
13 | ATGGCTCA | -0.132
14 | AATGTCCT | -0.237
15 | AGACCTCA | -0.167
16 | AACCTGAC | -0.0316
17 | AGGACTCA | -0.154
18 | CGTCCCAG | -0.0215
19 | ACGTGTTG | -0.0129
20 | CAGTGGCG | -0.0284
21 | AGATGCTC | 0.0444
22 | GTAGGCCA | -0.106
23 | CTCGCAGC | 0.111
24 | GAAGTTGC | 0.176
25 | ACCGATGG | -0.017

Row | Sequence | PBM E-score
26 | AGCTATAC | 0.0742
27 | CGACATAA | 0.132
28 | ACGAAGGC | -0.0795
29 | ACCGAAGC | 0.0747
30 | ATCGCGCG | -0.268
31 | CGCCGATA | -0.252
32 | ACGCCTCT | 0.114
33 | CCGCAGGA | -0.0064
34 | CGAGCCTC | -0.0914
35 | CCGTAAAC | -0.0216
36 | CCATGGAC | 0.0953
37 | GCCAGCCC | -0.0556
38 | TCACCTGA | -0.116
39 | ATCGATCA | -0.203
40 | ACAGAAGT | 0.123
41 | GATCATCA | -0.211
42 | AGGCGACC | 0.0593
43 | CGAGGGTC | -0.166
44 | GAGGCGAA | -0.0281
45 | CTTGACAA | -0.103
46 | GAACATTC | 0.0406
47 | GCTGTACA | -0.0854
48 | AATTTGCG | 0.0847
49 | ATGTGGGA | -0.0517
50 | ACTGGAAA | 0.0867

Row | Sequence | PBM E-score
51 | GACAAGCA | -0.0663
52 | AAGCTCGT | -0.145
53 | ATTCTTTC | 0.0196
54 | GAGCGAGA | -0.00255
55 | CACTGGAA | 0.318
56 | ACATTAGG | 0.131
57 | GGCCTGAC | -0.138
58 | ATTTGCCG | -0.0823
59 | AACATACG | 0.027
60 | CTCTCCTA | -0.0866
61 | AGTGCTTG | 0.00221
62 | CGAATGTC | 0.0561
63 | ACCAATAG | -0.0506
64 | CCTCTGCC | -0.306
65 | AATGCCCG | -0.207
66 | AAGCACCA | 0.0436
67 | TAGCAACA | -0.0292
68 | CCGCTAGC | -0.0553
69 | ACCTTACC | 0.05
70 | AGCTGTAT | -0.158
71 | GGACGCGA | 0.0936
72 | GAGGCTAC | 0.102
73 | AATAGGCA | 0.19
74 | ATGAACAA | 0.0275
75 | AACAGCGA | 0.0429

Row | Sequence | PBM E-score
76 | GAATAGCC | -0.102
77 | GAAGGACC | -0.0426
78 | AGTGGTTG | 0.235
79 | ACGGCGTG | 0.111
80 | CGAGTTTC | -0.0399
81 | TCTTAAAA | 0.0331
82 | GTTATGGA | 0.0104
83 | CTTAGTAA | 0.00321
84 | CTTACGTC | -0.22
85 | TCATTAAA | 0.246
86 | AAAGGTCG | -0.0877
87 | ACGAAGGA | -0.0775
88 | ACTGTAGG | -0.02
89 | CACTCCGA | -0.0102
90 | AGCACGCT | -0.123
91 | ACTCTACA | 0.0674
92 | TCCATGCA | -0.0599
93 | AAACGGTA | -0.058
94 | ACCCACGT | -0.0778
95 | CTCTCTGC | -0.141
96 | ATCGTCAA | -0.0894
97 | CACCTTAG | 0.141
98 | AGCATTAG | -0.155
99 | ATCGTTGA | -0.0165
100 | CGGGATTA | -0.0698

Row | Sequence | PBM E-score
101 | ATAAATGG | 0.0655
102 | ATGACGAG | -0.215
103 | ACTGAGAA | 0.00902
104 | GCAACCCC | 0.0451
105 | ACGGACTC | -0.0534
106 | GCTCTTTA | -0.0543
107 | ACATTTAT | -0.12
108 | GAAATGTC | -0.172
109 | AAGATTGA | -0.134
110 | AACACGCC | -0.137
111 | GGATAAGA | 0.169
112 | AGTAAATC | 0.066
113 | CGTATCCA | 0.00273
114 | GAATAGTA | -0.0935
115 | GAGCGACC | 0.0254
116 | CAAACCCA | 0.0871
117 | CTAAGAAG | 0.251
118 | CGGACAAG | -0.121
119 | CACTCCCG | -0.134
120 | CCACCGAA | -0.0589
121 | ATTCATGA | 0.123
122 | CAAGGGCA | -0.136
123 | ACGCCATC | -0.0108
124 | ATGAGACC | -0.182
125 | ATCAAAGG | -0.166

Row | Sequence | PBM E-score
126 | AATTATCC | -0.0869
127 | ACATGGTA | -0.124
128 | CTCTTGTC | -0.051
129 | AGATTTAG | 0.188
130 | TACATTAA | 0.127
131 | GCGGGCCA | -0.142
132 | GTGTAATA | 0.186
133 | ATGGCCAA | -0.23
134 | CTCGTTGC | -0.122
135 | ATGGTTTA | -0.176
136 | CCATTATA | 0.133
137 | AGCGAGGG | -0.032
138 | CGAAAGAA | 0.158
139 | AGTGCGAC | -0.209
140 | ACCCGAGG | 0.0242
141 | TGTGTTAA | 0.0586
142 | TACTGGGA | 0.166
143 | ACGATGGC | -0.219
144 | AACAGAAA | 0.0566
145 | CGTCTTGA | 0.0798
146 | ATACATGC | -0.00642
147 | CGCGTTCA | -0.011
148 | CATGCCGG | -0.0651
149 | GCAGGAAC | -0.0184
150 | CTATGACA | -0.123

Row | Sequence | PBM E-score
151 | GTACACAA | 0.0895
152 | GTACAACA | 0.0044
153 | CAAACCAG | -0.0395
154 | CCCGAACC | -0.11
155 | CCTAAGCC | -0.235
156 | CACACCGG | 0.0972
157 | CACACGCA | 0.057
158 | CAGTCACG | -0.0771
159 | CCTTATAC | 0.0665
160 | CCTGGTAG | 0.0486
161 | GGTAACAC | -0.147
162 | CAGTGGTC | -0.111
163 | CCGGTGCG | 0.0158
164 | GGTCCTGA | 0.116
165 | CCACTCTA | 0.178
166 | GACACTCA | -0.251
167 | AATTTTCA | 0.119
168 | ACCGTCCG | -0.165
169 | CTGCTGGC | -0.155
170 | AAATATTT | 0.0459
171 | CGCAGCTA | 0.34
172 | ATATACCG | -0.00748
